Out of some 45,000 compounds screened, about 65 (0.1%) were called active. The call rests on the fitted dose curve; in most records, active means well fitted activation curve with a large enough effect; inconclusive means small, poorly fitted or top-dose-only effect; inactive means no such curve, though single readings can be large or run the other way. Some of the results follow.
Each compound was assayed against Galactocerebrosidase (Homo sapiens) (UniProt P54803) (assay: A Novel Cell-Based Assay to Identify Small Molecules for B -Galactocerebrosidase). Details: 145M-Twi-hGALC-G270D cells (Twitcher mouse brain line with human GALC G270D), HMU-beta-Gal fluorescence, 48 h; series mostly up to 57.5 µM; activation: at the top concentration.
In short: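 Fluorogenic HMU-b-Gal hydrolysis (0.1 mM final, pH 5.2 citrate-phosphate with 1 mg/mL sodium taurocholate; carbonate stop buffer) measures mutant GALC activity after compound treatment of live 145M-Twi Twitcher brain cells stably carrying human GALC-G270D, with wild-type GALC line alongside; activation sought.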
Further: 0% is about no effect; nearly all actives have a fitted effect of over 65% in size.

Sequence of UniProt P54803 (P54803 whole entry, looked up): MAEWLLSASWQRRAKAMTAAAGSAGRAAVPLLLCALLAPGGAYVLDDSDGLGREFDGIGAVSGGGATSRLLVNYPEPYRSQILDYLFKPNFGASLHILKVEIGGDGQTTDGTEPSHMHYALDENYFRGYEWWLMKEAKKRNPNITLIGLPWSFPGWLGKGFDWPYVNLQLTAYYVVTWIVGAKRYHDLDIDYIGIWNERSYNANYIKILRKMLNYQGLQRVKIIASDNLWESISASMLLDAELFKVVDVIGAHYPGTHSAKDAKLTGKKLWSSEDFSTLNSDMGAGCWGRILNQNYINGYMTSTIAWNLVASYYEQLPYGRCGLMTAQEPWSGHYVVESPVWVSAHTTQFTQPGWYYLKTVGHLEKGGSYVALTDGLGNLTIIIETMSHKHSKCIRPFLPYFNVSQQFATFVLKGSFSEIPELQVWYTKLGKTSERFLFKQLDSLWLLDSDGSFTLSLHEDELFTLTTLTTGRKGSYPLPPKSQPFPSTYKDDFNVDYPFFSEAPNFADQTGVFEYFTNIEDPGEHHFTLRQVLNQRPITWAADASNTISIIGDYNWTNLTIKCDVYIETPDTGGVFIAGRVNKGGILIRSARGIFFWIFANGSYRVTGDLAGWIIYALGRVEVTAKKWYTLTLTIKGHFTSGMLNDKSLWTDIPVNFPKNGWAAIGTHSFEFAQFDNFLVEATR

SMILES | activation
COc1cc2c(C(=O)N(C)c3cc(Cl)ccc3OC)cn(CC(C)C)c(=O)c2cc1OC | inactive: -9.75%
Cc1nn(CCCC(=O)Nc2cccc(F)c2)c(=O)c2c1sc1ccccc12 | inactive: -8.75%
O=C(Nc1ccccc1)c1cn(-c2ccccc2)nc1-c1ccccc1 | inactive: -12.4%
COc1ccccc1NC(=O)CSC1=Nc2ccccc2N=C(c2ccc(F)cc2)C1 | inactive: -9.35%
Cc1cccc(-n2c3nc(=O)[nH]c(=O)c-3cc3c(C)nn(-c4ccccc4)c32)c1C | inactive: -9.19%
Cc1oc(C)c2c(=O)cc(-c3ccc4c(c3)OCO4)cc(OC(=O)c3ccc(Cl)cc3)c12 | inactive: -3.59%
Cc1ccc(CNC(=O)c2ccc3c(c2)N(Cc2cccc(C)c2)C(=O)CS3)cc1 | inactive: -11%
Cc1ccc(-c2nn(CC(=O)Nc3cccc(C(F)(F)F)c3)c(=O)c3ccccc23)cc1 | inactive: -10.7%
Cc1ccc(-c2nonc2NC(=O)c2ccco2)cc1C | inactive: -14.7%
COc1cc(CNc2ccc3[nH]c(=O)[nH]c3c2)cc(Cl)c1OCc1ccccc1F | inactive: -7.57%
Cc1ccc(-c2nc3ccccc3[nH]2)cc1NC(=O)COc1cccc(C)c1C | inactive: 0.722%
COc1ccc(C)cc1NC(=O)CCn1nc(C)cc1C | inactive: -29.9%
Cc1ccccc1C(=O)Nc1ccc(C(=O)N2CCCC(N(C)C)c3ccccc32)cc1 (centres undefined) | inactive: -9.93%
Cc1cccc(C)c1NC(=O)CSCc1cnn(-c2ccccc2)c1-n1cccc1 | inactive: -8.37%
COc1ccccc1Cn1c(CNS(=O)(=O)c2cccc([N+](=O)[O-])c2)nc2cccnc21 | inactive: 1.52%
NC(CSCC(=O)O)C(=O)O (centres undefined) | inactive: -11.1%
CCC(Sc1nc2ccccc2c2nc(CCc3c(C)n[nH]c3C)nn12)C(=O)Nc1ccccc1F (centres undefined) | inactive: -17%
COC(=O)c1ccc(NC(=O)CSc2n[nH]c(CC(C)C)n2)cc1 | inactive: -9.69%
Cc1ccc(NC(=O)Cn2c(=O)c(CNc3ccccc3)cc3cc4c(cc32)OCCO4)cc1 | inactive: -8.8%
CCN(CC)C(=O)C1=C(C)Nc2nc3ccccc3n2C1c1cccc(Cl)c1 (centres undefined) | inactive: -12.8%
COc1ccc(CNC(=O)c2cc3cccc(OC)c3oc2=O)cc1 | inactive: -13.5%
CC(=O)O[C@H]1CC[C@@]2(C)C(=CC[C@@H]3[C@@H]2CC[C@]2(C)C(C(C)=O)=CC[C@@H]32)C1 | inactive: -16.9%
COc1ccc(NC(=O)CSC2=Nc3ccccc3C3=NC(CCC(=O)NCCc4ccccc4)C(=O)N23)c(OC)c1 (centres undefined) | inactive: -13.3%
O=C(NCc1ccco1)c1ccc2c(c1)N(Cc1ccccc1F)C(=O)c1ccccc1S2=O (centres undefined) | inactive: -7.33%
CCn1cc(C(=O)N2CCN(c3ccc(OC)cc3)CC2)c(=O)c2cc(S(=O)(=O)N(C)C3CCCCC3)ccc21 | inactive: -10.7%

SMILES | activation
COc1cccc(CNC(=O)c2nn(C)c3c2CS(=O)(=O)c2ccccc2-3)c1 | inactive: -12.9%
COc1ccc(CNC(=O)c2cc(C)nc3c2c(C)nn3-c2cccc(Cl)c2C)cc1 | inactive: -12.4%
COc1cccc(NC(=O)C(CCSC)NC(=O)C2CCC(C)CC2)c1 (centres undefined) | inactive: -4.01%
CC(C)CN(CCCNC(=O)c1cn(C)c2ccc(S(=O)(=O)N(C)C3CCCCC3)cc2c1=O)CC(C)C | inactive: -5.99%
Cc1cccc(OC(=O)c2cc(-c3ccc(Cl)cc3)on2)c1C | inactive: -11.3%
CCOc1ccc(C2=CC(c3cc(Br)ccc3F)n3ncnc3N2)cc1Cl (centres undefined) | inactive: -9.36%
CCOc1ccc(S(=O)(=O)N(C(=O)c2ccncc2)c2ccc3oc(C)c(C(=O)OC)c3c2)cc1 | inactive: -17.5%
COc1ccc(C)cc1NC(=O)CC(=O)Nc1ccc2nc3n(c(=O)c2c1)CCCCC3 | inactive: -12.9%
CC(C)[C@@H]1CC[C@@H](C)CC1=O | inactive: 13.6%
CC(=O)c1cc2ccccc2s1 | inactive: -19.3%
O=C(COC(=O)c1cc(-c2ccccc2)nc2c(Cl)cccc12)c1ccc(F)cc1 | inactive: -24.7%
O=C(NCCc1csc(-c2ccc(F)cc2)n1)c1c(F)cccc1Cl | inactive: -12.9%
CC(C)C(=O)Nc1cccc(C2CN3CCSC3=N2)c1 (centres undefined) | inactive: -5.59%
Cc1nn(CC(=O)Nc2cccc(C(F)(F)F)c2)c(=O)c2nn(-c3ccccc3)c(C)c12 | inactive: -20.6%
CN(C(=O)CSc1nc2ccccc2n1Cc1cccc(C(F)(F)F)c1)c1ccccc1 | inactive: -46.8%
CC(C)CSc1oc(-c2ccco2)nc1S(=O)(=O)c1ccc(Br)cc1 | inactive: -6.57%
CCOc1ccc(-n2c(=O)c3c(C)c(C)sc3n(Cc3cc(=O)n4cc(Cl)ccc4n3)c2=O)cc1 | inactive: -1.39%
CC(=O)c1cccc(NS(=O)(=O)c2ccc3[nH]c4c(c3c2)CCCCC4)c1 | inactive: -6.46%
COc1ccc(CNC(=O)Cn2c(=O)n3nc(-c4ccc(OC)cc4)nc3c3ccccc32)cc1 | inactive: -15.4%
O=C(O)/C=C(\CC(=O)O)C(=O)O | inactive: -6.52%
CCOc1ccc(C(=O)Nc2ccc3nc(Nc4cccc(C(F)(F)F)c4)cc(C)c3c2)cc1OCC | inactive: -16.2%
COc1ccc(-c2c(C)nn3c(C(F)(F)F)cc(-c4ccc(C)cc4)nc23)cc1 | inactive: -1.92%
COc1ccc(-c2noc(CSc3nnc(C)n3-c3ccc(F)cc3)n2)cc1 | inactive: -6.42%
Cc1cn2c(=O)c(S(=O)(=O)Nc3ccc(OC(F)(F)F)cc3)c(C)nc2s1 | inactive: -17.4%

— PubChem BioAssay AID1159614 (National Center for Advancing Translational Sciences (NCATS), 2016)
